Experimental data published in publication PMC4336329 (PLoS ONE, 2015).
Screen size: about 310,000 compounds; about 2,200 (0.71%) showed an effect of 50% or more. Effects have a minus sign here. Some of the results follow.

Target: human ether-à-go-go-related gene (hERG) potassium channel (human, UniProt Q12809)
Test: primary screen, population patch clamp on CHO cells stably expressing hERG

human ether-à-go-go-related gene (hERG) potassium channel, sequence (Q12809 whole entry, looked up): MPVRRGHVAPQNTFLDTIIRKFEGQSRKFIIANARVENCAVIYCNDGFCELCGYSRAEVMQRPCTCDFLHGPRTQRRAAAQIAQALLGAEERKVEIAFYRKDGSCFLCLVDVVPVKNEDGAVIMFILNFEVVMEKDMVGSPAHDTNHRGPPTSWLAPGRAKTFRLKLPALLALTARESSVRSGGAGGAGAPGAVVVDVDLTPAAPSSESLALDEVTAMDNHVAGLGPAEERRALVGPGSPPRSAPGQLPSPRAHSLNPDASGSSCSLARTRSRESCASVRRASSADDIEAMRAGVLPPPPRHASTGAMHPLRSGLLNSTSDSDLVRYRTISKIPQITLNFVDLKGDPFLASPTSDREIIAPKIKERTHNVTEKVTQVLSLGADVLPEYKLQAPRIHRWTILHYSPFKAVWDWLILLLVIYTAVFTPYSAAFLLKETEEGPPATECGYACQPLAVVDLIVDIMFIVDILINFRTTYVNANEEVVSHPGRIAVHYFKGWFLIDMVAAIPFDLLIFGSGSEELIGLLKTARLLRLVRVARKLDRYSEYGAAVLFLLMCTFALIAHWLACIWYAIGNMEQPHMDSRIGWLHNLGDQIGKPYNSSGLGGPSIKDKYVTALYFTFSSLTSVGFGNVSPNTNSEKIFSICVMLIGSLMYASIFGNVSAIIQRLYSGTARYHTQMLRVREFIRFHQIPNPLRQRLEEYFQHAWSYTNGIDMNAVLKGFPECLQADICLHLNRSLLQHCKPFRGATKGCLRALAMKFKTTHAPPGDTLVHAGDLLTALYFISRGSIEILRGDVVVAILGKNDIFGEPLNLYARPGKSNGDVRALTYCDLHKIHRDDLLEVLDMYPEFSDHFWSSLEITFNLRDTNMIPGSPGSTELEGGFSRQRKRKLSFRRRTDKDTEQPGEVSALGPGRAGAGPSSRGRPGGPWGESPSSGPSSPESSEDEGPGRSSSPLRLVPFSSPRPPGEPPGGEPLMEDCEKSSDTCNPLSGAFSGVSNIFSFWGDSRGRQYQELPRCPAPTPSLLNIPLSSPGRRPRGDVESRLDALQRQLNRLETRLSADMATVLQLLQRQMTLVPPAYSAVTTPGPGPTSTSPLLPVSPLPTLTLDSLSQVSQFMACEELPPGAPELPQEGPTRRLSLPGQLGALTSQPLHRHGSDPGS

SMILES | hERG current change (%, negative = inhibition) at 1uM [%]
O=C(c1ccc(-n2cncn2)c([N+](=O)[O-])c1)N1CCN(S(=O)(=O)c2cccc(F)c2)CC1 | -26.3
Cc1ccc(N(C)C(=O)N2CCN(c3ccccn3)CC2)cc1 | 7.8
COc1ccc(NC(=O)CN(C)C(=O)c2ccc(N3CCOCC3)c([N+](=O)[O-])c2)cc1 | -4.07
CN(C)CCC[C@@]1(c2ccc(F)cc2)OCc2cc(C#N)ccc21.O=C(O)C(=O)O | -4.9
CCOc1c(Br)cc(/C=C2/SC(=O)N(CC(=O)N3CCCC3)C2=O)cc1OC | 2.4
CN(CC1CCCO1)S(=O)(=O)c1ccc(C(=O)NCc2ccccc2)cc1 (stereo not drawn) | 9.16
CCOc1ccc(N(CC(=O)N2CCN(c3ccc(F)cc3)CC2)S(=O)(=O)c2c(C)noc2C)cc1 | 1.06
COc1ccccc1CC(=O)Nc1ccc(S(=O)(=O)N2CCCCC2)cc1 | 18.4
COc1ccccc1N(CC(O)CN1CCC(C)CC1)S(=O)(=O)c1ccccc1 (stereo not drawn) | 4.23
O=c1c2oc3nc4c(cc3c2ncn1CCCc1ccccc1)CCCC4 | -0.796
CC1(C)CC(=O)C2=C(C1)N(c1ccc(F)cc1)C(=O)NC2(C(F)(F)F)C(F)(F)F | -4.97
COc1cccc(-n2c(CCn3nc(C)c([N+](=O)[O-])c3C)n[nH]c2=S)c1 | 14.3
Cc1nc2sccn2c(=O)c1S(=O)(=O)Nc1cccc(Cl)c1C | -4.18
CC(=O)c1ccc(N(CC(=O)NC2CCS(=O)(=O)C2)S(=O)(=O)c2ccc(Cl)cc2)cc1 (stereo not drawn) | 5.55
COC/C=C/C1=CC2=CC(=O)C(C)(O)C(=O)C2=CO1 (stereo not drawn) | 14.6
C=CCNC(=O)/C(C#N)=C/c1c(N2CCCCCC2)nc2ccccn2c1=O | -9.31
Cc1nnsc1C(=O)NC1CCCCC1 | 9.98
COc1ccc(NC(=O)N(Cc2cc3cc(OC)c(OC)cc3[nH]c2=O)CC2CCCO2)cc1 (stereo not drawn) | 9.59
CC(=O)Nc1ccc(CN2CCN(Cc3ccc(C)cc3)C(CCO)C2)cc1 (stereo not drawn) | 4.84
Cc1ccc(NC2=NCC(=O)N2CCc2ccccc2)cc1C | 11
COc1ccc(NC(=O)c2cccc(S(=O)(=O)N3CCOCC3)c2)cn1 | 1.32

SMILES | hERG current change (%, negative = inhibition) at 1uM [%]
CS(=O)(=O)c1ccc(CNC(=O)[C@]2(C(F)(F)F)C[C@H](CCc3ccccc3)CCCO2)cc1 | 9.75
COc1ccc(C(=O)/C=C/c2cccnc2)c(OC)c1 | 15.6
Cc1c(-n2cccc2C=O)cccc1[N+](=O)[O-] | 13
COc1ccc(Br)cc1CNC(=O)CCC(=O)N1CCSc2ccccc21 | 4.36
CCNC(=S)N(CCc1ccccc1C)Cc1cc2cc(OC)c(OC)cc2[nH]c1=O | 5.94
CCOC(=O)/C=c1\s/c(=C\c2ccc(-c3ccccc3)cc2)c(=O)n1CC(=O)NCc1ccc2c(c1)OCO2 | -8.28
Cc1c(N(C(=O)c2ccccn2)C2(C(=O)NC3CCCC3)CCCCC2)c(=O)n(-c2ccccc2)n1C | 11.3
O=C(Oc1ccc2ccc(=O)oc2c1)c1ccc([N+](=O)[O-])cc1 | 10.8
O=C(COC(=O)c1ccccc1C(=O)N1CCN(c2ccccc2)CC1)Nc1ccc(F)cc1 | -0.239
Cc1ccc(N2CC(C(=O)OCC(=O)c3c(N)n(CC(C)C)c(=O)n(C)c3=O)CC2=O)cc1 (stereo not drawn) | 14.5
OCC1OC(Oc2c[nH]c3ccccc23)C(O)C(O)C1O (stereo not drawn) | 25.3
Cc1ccn2c(NCc3ccccc3)c(-c3cccs3)nc2c1 | 14.4
CCCn1ccc2c(OCC(=O)Nc3ccc(NC(C)=O)cc3)cccc2c1=O | 10.4
CCOC(=O)CNc1nc(Cl)nc(N2CCCCC2)n1 | 15.6
CC1CCN(S(=O)(=O)c2ccc3c(c2)N(CC(=O)NCCCN2CCCCC2)C(=O)CS3)CC1 | 13.2
COc1cccc(CNS(=O)(=O)c2ccc3c(c2)CC(C)N3C(=O)C2CCC2)c1 (stereo not drawn) | 17.1
Cc1ccc2cc(CCNC(=O)CC(C)(C)C)c(=O)[nH]c2c1C | 13.7
CC(C)c1nnc(NC(=O)CSc2nnc(NC(=O)c3c(F)cccc3F)s2)s1 | -2.11
O=c1c(Cl)c(N2CCN(S(=O)(=O)c3ccccc3)CC2)cnn1-c1ccccc1 | 5.8
CCNC(=S)N/N=C/c1ccc(OCC(=O)Nc2ccc(C)cc2)cc1 | 4.33
Cc1c(C(=O)Nc2nccs2)sc2nc(-c3cccs3)cc(C(F)(F)F)c12 | 14.8
